Several values for one entry are separate records, joined by “and”; a condition that tells them apart may be missing. Identical values can stand only once. Hit rate of the full screen: of about 410,000 compounds, about 6,400 (1.6%) were called active. Inconclusive results, whose numbers are uncertain, are shown with a selection of clear calls. Calls follow the shape of the dose curve; as a rule, active = well fitted inhibition curve with a large enough effect; inconclusive = small, poorly fitted or top-dose-only effect; inactive = no such curve, though single readings can be large or run the other way. A potency beside an inconclusive call is a rough fit, not a confirmed value.
Target: Glucagon-like peptide 1 receptor (Homo sapiens) (UniProt P43220)
Assay: qHTS of GLP-1 Receptor Inverse Agonists (Inhibition Mode); also: nearly all actives have a fitted effect of over 55% in size
Details: HEK293 GLP-1R CRE-luciferase, luminescence, 24 h, GLP-1R form is constitutively active; activity change, negative = inhibition: at 38.3 µM (top of the series) unless noted
How it was run: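 Luminescence readout: a drop in cAMP-driven luciferase signal flags inverse agonism at a constitutively active GLP-1R stably expressed in HEK293. Compound exposure lasted 24 hr at 37 deg C, 5% CO2.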
% is scaled to controls: 0 for no effect and ±100 for the full control effect; potency is read from the fitted curve at half-maximal effect; tags tell the direction and shape of the fitted curve.

Chain of UniProt P43220 (P43220 whole entry, looked up): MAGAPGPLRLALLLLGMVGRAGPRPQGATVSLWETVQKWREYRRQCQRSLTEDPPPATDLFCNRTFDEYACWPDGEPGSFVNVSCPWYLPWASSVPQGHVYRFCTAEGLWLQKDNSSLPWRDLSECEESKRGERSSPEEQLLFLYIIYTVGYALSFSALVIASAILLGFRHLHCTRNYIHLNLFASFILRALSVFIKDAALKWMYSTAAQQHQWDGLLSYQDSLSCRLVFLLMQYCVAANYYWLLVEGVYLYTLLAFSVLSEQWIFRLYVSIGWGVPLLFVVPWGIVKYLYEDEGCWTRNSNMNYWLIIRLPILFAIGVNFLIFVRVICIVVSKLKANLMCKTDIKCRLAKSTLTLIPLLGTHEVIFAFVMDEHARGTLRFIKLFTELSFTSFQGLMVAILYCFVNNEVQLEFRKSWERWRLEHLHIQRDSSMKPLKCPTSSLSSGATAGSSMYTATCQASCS

Activity change, negative = inhibition, inactive:
COc1cccc(C(=O)NCC(=O)OCc2cc(=O)n3nc(C)sc3n2)c1 12.3%

Potency, inconclusive:
CCOC(=O)C1(Cc2cccc(F)c2)CCN(C(=O)c2ccoc2C)CC1 12.6 µM [inhibitor, single point]
C=CCn1cnc2scc(-c3ccc(CC)cc3)c2c1=O 10 µM [inhibitor, partial curve, poor fit]
Cc1c(Cl)cccc1Nc1nc(N)nc(CSc2nc3ccccc3s2)n1 28.2 µM [inhibitor, partial curve, poor fit] and 28.2 µM [inhibitor, single point]
CCN(C(=O)c1cccc(NC(=O)c2ccccc2)c1)C1CCCCC1 7.08 µM [inhibitor, partial curve]
Cc1cc(NC(=O)C(C)SCC(=O)Nc2cc(C(F)(F)F)ccc2N2CCCCC2)no1 (stereo unspecified) 10 µM [inhibitor, partial curve, poor fit]
O=C(CCC(=O)N1CCSc2ccccc21)NCc1ccc(Cl)cc1 28.2 µM [inhibitor, single point]
CCOC(=O)c1c(C)[nH]c(C)c1S(=O)(=O)N1CCC(C(=O)N2CCN(c3cc(C)ccc3C)CC2)CC1 17.8 µM [inhibitor, single point]
CC1CCN(S(=O)(=O)c2ccc3c(c2)N(CC(=O)NCCc2ccc(Cl)cc2)C(=O)CO3)CC1 11.2 µM [inhibitor, partial curve, poor fit]
O=C1CSC(=S)N1c1cccc(Cl)c1 28.2 µM [inhibitor, single point]
CCC(Oc1ccccc1)C(=O)Nc1ccccc1N1CCCCC1 (stereo unspecified) 8.91 µM [inhibitor, partial curve, poor fit]
COc1ccc(C(=O)C=CNNC(=O)c2ccc(Cl)cc2)cc1 28.2 µM [inhibitor, single point]
COc1ccc(Br)cc1CNC(=O)C1CCCN(S(=O)(=O)N2CC(C)CC(C)C2)C1 (stereo unspecified) 2 µM [inhibitor, full curve, poor fit]
Cc1ccc(S(=O)(=O)CCC(=O)Nc2nc(C(C)(C)C)cs2)cc1 5.62 µM [inhibitor, partial curve]
COc1ccccc1NC(=O)C(NC(=O)OC(C)(C)C)C(C)OCc1ccccc1 (stereo unspecified) 11.2 µM [inhibitor, single point]
O=C1SC(Nc2ccc(Cl)cc2)C(=O)N1Cc1ccccc1 (stereo unspecified) 20 µM [inhibitor, single point]

From PubChem BioAssay AID624417 (National Center for Advancing Translational Sciences (NCATS), 2012)
